Some compounds were tested as several samples or in several runs, with calls that do not always agree.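 A percent growth of 40 corresponds to 60% growth inhibition; 0 means no net growth; -100 means all cells died. Active threshold: below 10.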 Some entries of the source have several records that differ or are many. This is not the full list of results. There may be further records. The screen tested this drug many times, at its own concentration, as given; each value is one run. Signs of the kind (2×) count equal records among those shown.

These results are taken from PubChem BioAssay (NCI).

This experiment concerns SW-620 colon. Description: NCI-60 one-dose screen, 48 h (100 = growth as untreated, 0 = no growth, -100 = all killed).

Consider `COc1cccc2c1C(=O)c1c(O)c3c(c(O)c1C2=O)C[C@@](O)(C(=O)CO)C[C@@H]3OC1CC(N)C(O)C(C)O1` (stereo not given in full), for which the growth entry was “inactive: 32.9 (2×), 35.6, 34.6 (2×), 40.1, 41.5, 31.4 (2×), 33.4, 36.3, 39.7, 41.6, 42.7, 36, 34.4 (2×), 40.5, 31.7, 36.2 (2×), 29.3, 33.7, 33.2, 30.6, 28, 32.2, 32.8, 26.2, 34.2, 37.9, 44.3, 32.3, 33.8, 33.9, 31.5, 30.4, 33.1, 19.4, 26.6%” (0.25 µM, runs of 2018); “inactive: 29.2 (2×), 28.4, 21.9, 22.3, 25, 30.1, 25.6, 24.5, 26.4, 24.7, 28.6 (3×), 30.8, 30, 32.5, 33.7, 32, 29.4, 31.5, 30.7, 29.1 (2×), 27.7, 25.1, 33.2, 33.9, 27.9, 26, 24, 26.9, 35.1, 35.6, 33.3, 31.4, 36.1, 23.8, 23.9, 26.1%” (0.25 µM, runs of 2019); “inactive: 33.4, 30.3 (3×), 35.4, 32, 34.6, 32.2, 27.3, 28.2, 36.8, 31.5 (2×), 29.9, 37.6, 30.8, 24.4, 32.8, 29.1%” (0.25 µM, runs of 2020); “inactive: 34.6, 37.8, 37.1 (2×), 38.5, 33.9, 29.4 (2×), 30.6, 30.7 (2×), 30.1, 26.8, 27.6, 37.4, 32.7, 37, 33.3 (2×), 28.9, 29.5, 31.4, 29.9 (2×), 29.3, 32.8, 28, 28.2, 30.4, 30.5, 29.1, 31.5, 32.2, 35.8, 34.4, 27, 30.2, 27.7, 27.4, 36.4, 24.8, 24.7, 47.1%” (0.25 µM, runs of 2021); “inactive: 22.5, 24.6, 31.5, 27.2, 10.1, 28.4, 22.1, 27.5 (2×), 29, 23.2, 30.3, 30.2, 29.5, 32.3, 29.7, 20.3, 53.7, 51.9, 27.3, 56, 50.6, 55.2, 34, 35.6, 31.4%” (0.25 µM, runs of 2022); “active: -19.9, -17.6, -14.3, -24.4, -24.2, -9.38, -22.7, -15.6, -10.7, -12.5, -6.45, -19.1, -18.9, 2.46, -17.2, -9.11, -2.49, -21.8, -24.9%” (25 µM, runs of 1991). Besides, the growth entry is “active: -16.2, -39.9, -19.2, -41.9, 4.47, -17.1, -34.3, -24.5, -3.31, -15.3, -13.8, -11.6, -1.37, -20.7, 0.794, -41.7, -13.4, -10.9, -22.1, -64.6, -19.7 (2×), -33.4, -33.8 (2×), -9.09, -5.05, -13.3, -4.38, -6.93, -67.4, -15.9, -20.8, -39, -13, -17.3, -7.43, -27, -29.2, -22.9, -18.4, -19.1 (2×), -10.6 (2×), 4.62, 1.89, 1.44, -58.2, 0.84, -62.6, -58.5, -36, -16.8, 0.221, -4.85, -19, -36.2, -42.9, -3.71, -3.05, -25.9, -3.83, -38.3, -7.32, -35.3 (2×), -24.1, -34.9, -46.6, -30.9, -11.2, -38.6, -13.9, -6.98, -6.81, -18.1, -75.6, 2.41, 1.36, -3.08, -30.8, -36.4, -13.2, -24.6, -26.2, -10.4 (2×), -25, -24.7, -10.2, 0.348, -18.2, -20.1 (2×), -2.09, -21.2, -49.2, -8.27, -1.94, -14.9, -39.1, -26.4, 1.38, -29.7, -3.23, -36.8, -15.2, -42.2, -36.6, -22.4, 0.771, 3.25, 2.98, -29.5, -9.07, -16.9, 1.31, 0.0603% and inactive: 116%” (25 µM, runs of 1992); “active: -25.1, -25.5, 5.29, -20.6, -28.7, -36.1, -31.1, -31.5, -14.6, 5.74, -36, -45, -16.2, 2.15 (2×), 1.83, 0.541, -17.1, 3.5, -28.9 (2×), -10, -12.7, -43.2, -2.11, 0.146, -22.9, -9.79, -26.3, -36.9, -29.7, -29.8, -11.3, -32.6, -8.02, -2.27, -12, 1.49, -17.9, -14.4, -2.66, 1.38, -29.2, -19.4, -24.9% and inactive: 13.6%” (25 µM, runs of 1993); “active: -11.5, -65.8, -24.9, -21.8, -16, 0.91, -11.9, -37.1, -3.1, -15.3, -63.5, -18.3, -7.72, -48.4, -22.4, -0.278, -52.1, -18.9, -30, -20.1, -8.22, -44.9, -28.8, -25.6, -64.3, 0.475, -27.2, -30.8, -21.3, -11.2, -9.39, -31.1, -15.1% and inactive: 80.7%, 15.3%” (25 µM, runs of 1994); “active: -14.9, -56.6, -25.1, 1.48, -26.1, -30.4, 0.624, -23.5, 4.33, -15.5, 2.22, -53.7, -1.74, 5.06, -25.9, -11.7, 3.59, -0.852, -26.7, -19.3, -32.5, -66.7, -12.3, 6.13, -21.9, -11.2, -24.3, -10.7, 6.68, 2.41, -17.2, -15.1, 6.21, -18.3, -37.8, -21.2, -47.3, -25.7, -28.5, -7.42%” (25 µM, runs of 1995); “active: -14.2, -5.47, -8.21, -20.8, 2.29, 0.132, 2.89, -13.8, -46.3, 0.537, -32.8, -44.2, 1.29, -16.2, -12.7, -13, -22.9, -0.289, 7, -28, 0, -20.7, -14.7, 0.42, -14.1, -4.36, -22.2, -11.8, 3.66, 5.6, 9.13, -2.23, -20.2, -0.588, 2.97, -57.1, 3.45, -1.81, -6.47, 8.65, 4.45, -18.2, -17.7, -2.45, 8.84, 0.473, -7.07, -22, -13.5% and inactive: 11.9, 98.6, 12.2, 13.8%” (25 µM, runs of 1996); “active: -44.7, 0.48, -29.2, -16.1, 5.39, 1.16, -11.6, -40.9, -42.4, 9.48, -5.9, 5.75, -6.25, -18.9, 0, 0.443, -9.05, -9.15, 0.538, -16.7, -10.1, 4.76, -30.3, 0.182, 4.1, -9.16, -27.9, -2.4, -36, -14.3, -30.9, -19.3, -7.5, 0.806, -61.9, 2.46, -20.9, -30, 7.22% and inactive: 11.1%, 11.3%” (25 µM, runs of 1997). Besides, the growth entry was “active: -32.9, -28.3, -61.6, -1.22, 3.35, 3.41, -52.6, -57, -6.63, -45.6, 0.632, 3.24, 0.617, -17.2, -0.336, 5.03, -1.53, 5.65, -0.621, 2.11% and inactive: 17.6%, 10.3%, 28.4%” (25 µM, runs of 1998); “active: -29.4, 8.33, 7.3, -46, -100 (2×), -22.1, 5.4, -69.5, 2.29, 4.53, 1.05, 4.79, 7.86, 1.46% and inactive: 11.6%, 14%” (25 µM, runs of 1999); “active: 3.74%, 4.23%, 1.23% and inactive: 490%” (25 µM, runs of 2000).
